In PubChem BioAssay AID686979 (National Center for Advancing Translational Sciences (NCATS), 2013):
Hit rate of the full screen: of about 420,000 compounds, about 50,000 (12%) were called active. Inconclusive results, whose numbers are uncertain, are shown with a selection of clear calls. Calls come from the whole dose curve; as a rule, active = well fitted inhibition curve with a large enough effect; inconclusive = small, poorly fitted or top-dose-only effect; inactive = flat fitted curve, though single readings scatter. Potencies of inconclusive entries are left out as doubtful fits.

test: qHTS for Inhibitors of human tyrosyl-DNA phosphodiesterase 1 (TDP1): qHTS in cells in presence of CPT; settings: chicken DT40 Tdp1-/-;hTDP1 cells + 20 nM CPT, ATP luminescence, 48 h; activity change, negative = growth inhibition: at 46.2 µM (top of the series); note: nearly all actives have a fitted effect of over 55% in size
How it was run: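 Chicken DT40 Tdp1-/- cells complemented with human TDP1, 400 cells/well, exposed to compounds plus 20 nM camptothecin for at least 48 h at 37 C; viability read as ATP content by CellTiter-Glo luminescence.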
% is set by controls: 0 for no effect and ±100 for the full control effect; potency is the fitted concentration of half-maximal effect; tags give direction and shape of the fitted curve.

Structure (SMILES)	Potency	activity change, negative = growth inhibition
Cc1ccc(OCC(=O)N/N=C/C=C/c2ccco2)cc1C	inconclusive [inhibitor, single point]	
O=C(/C=C/C(=O)N1CCc2ccccc2C1)N1CCc2ccccc2C1	inconclusive [inhibitor, single point]	
CCC(C)n1c(=O)c(C(=O)Nc2ccccc2S(N)(=O)=O)c(O)c2ccccc21 (centres undefined)	inconclusive [inhibitor, single point]	
Cc1cc(NC(=O)C2(C)CCN2C(C)C)c2ccccc2n1 (centres undefined)	inconclusive [inhibitor, single point]	
COc1ccc(-c2nc(SCC(=O)c3ccc(OC)c(Br)c3)n[nH]2)cc1	inconclusive [inhibitor, single point]	
CCOc1ccc(C(C)=O)cc1N1C(=O)C2C3C=CC(C3)C2C1=O (centres undefined)		inactive: -3.94%
CCC(C(=O)OC)n1cnc2c(cnn2-c2ccc(F)cc2)c1=O (centres undefined)		inactive: -26.7%
Cc1ccc2[nH]c(=O)c(CN(CCCO)Cc3nnnn3Cc3ccccc3)cc2c1	inconclusive [inhibitor, single point]	
CCCCOc1ccc(C2C3CN(C(=O)OCC)CC=C3C(C#N)=C(N)C2(C#N)C#N)cc1OC (centres undefined)	inconclusive [inhibitor, single point]	
Cc1ccc(-c2nc3c4ccccc4ccn3c2Cc2ccccc2C(F)(F)F)cc1	inconclusive [inhibitor, single point]	
COc1ncc(-c2ccc(N3C(c4ccc([N+](=O)[O-])cc4)=Cc4ccccc4C3CC(C)=O)cc2)cn1 (centres undefined)	inconclusive [inhibitor, single point]	
O=C(c1ccc(C(=O)N2CCCc3ccccc32)s1)N1CCCc2ccccc21	inconclusive [inhibitor, single point]	
CC(C)C[C@H]1CN([C@@H](Cc2ccc(O)cc2)CN2CCC[C@@H]2CN2C(=S)NC[C@@H]2Cc2ccccc2)C(=S)N1CC1CCCCC1	active: 16.4 µM	
COc1ccc(-c2ccc(NCCN3CCOCC3)nn2)cc1OC		inactive: -0.359%
COC(=O)[C@]12CCCCC=C1N(Cc1ccc3c(c1)OCO3)C(=O)[C@H](CC(=O)NCc1ccc(C)o1)C2	inconclusive [inhibitor, single point]	
O=C1COc2ccc(C(=O)COC(=O)CNS(=O)(=O)c3cccc(F)c3)cc2N1		inactive: -2.2%
Cc1ccc(OCCN2CCN(C)CC2)c([N+](=O)[O-])c1	inconclusive [inhibitor, single point]	
C/C(=N\N=C(/C)c1cccc(N)c1)c1cccc(N)c1		inactive: -9.51%
CCOc1cccc(C2c3[nH]c4ccccc4c3CCN2C(=O)CCC2CCCC2)c1 (centres undefined)	inconclusive [inhibitor, partial curve]	
c1coc(C2=Nc3cccc4cccc(c34)N2)c1	active: 14.6 µM	
CCc1cccc(NC(=O)C2CCC(CNS(=O)(=O)c3csc(C(N)=O)c3)CC2)c1 (centres undefined)	inconclusive [inhibitor, partial curve]	
N=c1c(C(=O)NCc2ccc(F)cc2)cc2c(=O)n3ccccc3nc2n1CCCN1CCOCC1	inconclusive [inhibitor, partial curve, poor fit]	
Cc1noc(C)c1-c1cncnc1NC1CC1		inactive: -1.34%

Structure (SMILES)	Potency	activity change, negative = growth inhibition
Cc1cc(C(=O)N/N=C\c2cc(C(C)(C)C)ccc2O)n[nH]1	active: 20.6 µM	
Cn1c(N)c(C(=O)COC(=O)c2cc(-c3ccco3)nc3ccccc23)c(=O)n(C)c1=O	active: 20.6 µM	
Cc1ccc(C(C(=O)NCc2ccc(F)cc2)N(Cc2ccco2)C(=O)c2snc(C(N)=O)c2N)o1 (centres undefined)	active: 14.6 µM	
Cc1cccc2sc(N(CCN(C)C)C(=O)c3cc(Cl)sc3Cl)nc12	inconclusive [inhibitor, single point]	
COc1ccc(-c2nn(-c3ccccc3)cc2/C=C/C(=O)O)cc1[N+](=O)[O-]	inconclusive [inhibitor, single point]	
O=C(COc1ccc(F)cc1)N1CCC(Cc2ccccc2)CC1	inconclusive [inhibitor, single point]	
CCOc1ccccc1NC(=S)NCCc1ccccc1	inconclusive [inhibitor, single point]	
CC1CCN(C(=O)CSc2nc(C3CC3)nc3ccccc23)CC1	inconclusive [inhibitor, single point]	
CCCCCCCCC[n+]1cccc2c3ccccc3ccc21	active: 0.58 µM	
N#Cc1nc(-c2ccco2)oc1N1CCC(Cc2ccccc2)CC1	inconclusive [inhibitor, single point]	
COc1cc(/C=C/CN2CCC(CO)(CC3CCCCO3)CC2)ccc1O (centres undefined)		inactive: -7.01%
O=C(NC(=S)Nc1ccc(F)cc1)C1CCCCC1		inactive: -8.86%
COC(=O)c1ccccc1NC(=O)CN1CCN(C(=O)c2ccco2)CC1	inconclusive [inhibitor, partial curve]	
OC(c1ccccc1)c1ncc(-c2ccc(C(F)(F)F)cc2)[nH]1 (centres undefined)	inconclusive [inhibitor, single point]	
Cc1ccc(NC(=O)Cn2cnc3nc4c(cc3c2=O)CCCC4)cc1Cl		inactive: -16%
CC(C)(C)OC(=O)N1CCC(c2c(C(=O)NCc3ccco3)cnn2-c2ccccc2)CC1	inconclusive [inhibitor, single point]	
CCOc1ccc(S(=O)(=O)c2cn(Cc3ccccc3)c3ccc(OCC)cc3c2=O)cc1	active: 13 µM	
CCc1ccc(S(=O)(=O)Nc2cccc(-c3ccc(N4CCC(C)CC4)nn3)c2)s1	inconclusive [inhibitor, single point]	
Cc1cc(NC(=O)NCc2ccc3c(c2)CCN3C(=O)c2ccccc2)ccc1Br	inconclusive [inhibitor, single point]	
CN(CC(=O)Nc1c(Cl)cccc1Cl)C(=O)c1n[nH]c2ccccc12		inactive: 2.26%
CC1CCC/C(=N\NS(=O)(=O)c2ccccc2)C1 (centres undefined)		inactive: -5.13%
CN1CCN(S(=O)(=O)c2ccc(Oc3cccc(C(F)(F)F)c3)nc2)CC1	inconclusive [inhibitor, single point]	
O=C(N/N=C/c1ccco1)c1cc(-c2ccncc2)nc2ccccc12	active: 7.31 µM	

Structure (SMILES)	Potency	activity change, negative = growth inhibition
COc1ccc(S(=O)(=O)N2CCSC2C)cc1C (centres undefined)		inactive: 0.262%
CCn1c(=O)cc(SCC(=O)NCc2ccccc2OC)c2ccccc21	inconclusive [inhibitor, single point]	
O=C(c1cc(-c2ccc(Cl)cc2)nc2ccccc12)N1CCOCC1	inconclusive [inhibitor, single point]	
O=C1C2C3C=CC(C3)C2C(=O)N1c1ncn[nH]1 (centres undefined)		inactive: -4.84%
CCN(CC)c1ccc(NC(=O)Cn2nnc(-c3cccc(OC)c3OC)n2)c(C)c1	inconclusive [inhibitor, partial curve, poor fit]	
COc1cccc(CN(C)C(=O)CN2C(=O)NC(c3ccccc3)(c3ccccc3)C2=O)c1	inconclusive [inhibitor, single point]	
CCCOC(=O)/C(=C\C=C\c1ccco1)NC(=O)c1ccccc1	active: 13 µM	
CCc1ccccc1Oc1nc(NC(C)C)nc2ccsc12	inconclusive [inhibitor, single point]	
O=C(NCc1cccnc1)C(=O)NCC(c1cccnc1)N1CCN(c2ccccc2F)CC1 (centres undefined)	inconclusive [inhibitor, single point]	
CCS(=O)(=O)c1nc(S(=O)(=O)c2ccc(Cl)cc2)c(N2CCC(O)CC2)s1		inactive: -18.4%
CCN(CC)c1cc(C)c(/C=C/c2ccnc3ccccc23)cc1C	active: 10 µM	
O=C(/C=C/c1ccccc1Cl)Nc1ccccc1		inactive: -27.8%
Cc1cccc(C)c1NC(=O)CN(C)C(=O)c1cccc(S(=O)(=O)N2CCN(C)CC2)c1	inconclusive [inhibitor, single point]	
O=C(O[C@H]1[C@H](Cc2ccccc2)NS(=O)(=O)[C@H]2CC3C=C[C@]12O3)c1ccc(Br)cc1	inconclusive [inhibitor, single point]	
CCOC(=O)c1sc2ccccc2c1S(=O)(=O)N1CCN(c2cccc(C)c2C)CC1	inconclusive [inhibitor, single point]	
Cc1ccc(-c2nnc(NCc3ccccc3)c3ccccc23)cc1	inconclusive [inhibitor, single point]	
O=C(C1CCN(S(=O)(=O)c2cccc3nonc23)CC1)N1CCN(c2ccccc2F)CC1	inconclusive [inhibitor, single point]	
CSc1nc(-c2ccccc2)nn1C(=O)c1ccc(C)cc1	inconclusive [inhibitor, single point]	
Cc1cc(C)c2c(=O)cc(C(=O)Nc3ccc(S(=O)(=O)N(C)Cc4ccccc4)cc3)oc2c1	active: 5.8 µM	
COc1cccc(C(=O)C2CCCN(Cc3cccc(-n4nc(C)cc4C)c3)C2)c1 (centres undefined)	inconclusive [inhibitor, single point]	
CCCCNC(=O)CSc1nc(COc2ccccc2)nc2ccccc12		inactive: -12.3%
c1csc(Cn2c(-c3cccs3)nc3ccccc32)c1	inconclusive [inhibitor, single point]	
CC(/C=C/c1cccc([N+](=O)[O-])c1)=N\NC(=O)c1ccncc1	inconclusive [inhibitor, single point]	
